The source gives no read counts; variants with many changes may rest on few reads.
B1: OR4K15 (parent)
chain: GUUAACGGUCAUAGGCCAUGGAAACUAGGAGCACCAUUUCGCUGCCAGUGAAGAAAUGAACAAAGAAAAUCUGGGCCAGGCAGGCAUCAAAAGAAAUAGUCUUGCGCUCAACCAGAAAGUCUGUAAUCAUUUUAAGGGUA

Variants of: B1
Assay: self-cleavage, relative activity (ratio to wild type); higher = more cleavage; in vitro, sequencing; the parent is a self-cleaving ribozyme

Variant | self-cleavage
A22U A52G A59C A86C U122A | 0.44
A22U A52G A94G | 1.24
A22U A52G G74U C105U U130C | 0
A22U A54G A68G A69G A86G A134G | 1.33
A22U A54U A116G U132A | 1.38
A22U A55G A68G A98G | 0.15
A22U A55G A91U U131C | 1.41
A22U A55G U87C C105A A135U | 0.01
A22U A59G A62U | 1.02
A22U A67G A86G U120C | 0.41
A22U A86G A92G U103A | 0.31
A22U A86G A92U | 1.35
A22U A86G A116C U132C U133C | 0.02
A22U A89G A117G | 1.9
A22U A92G A116U | 0.34
A22U A92G C101U | 0.56
A22U A92U U97A | 1.59
A22U A118G A135U | 1.17
A22U G28A U120A | 1.41
A22U G31U A51G C88U A92G A96G U108C A110G | 0.01
A22U G74A G83U | 0.19
A22U G79U U87C A134G | 0.07
A22U U26C A82U | 0.18
A22U U38A A67U A94G | 1.78

Variant | self-cleavage
A22U U38C A55G A59G A64U A96G U97C A117G | 0.71
A22U U38C U97A | 0.63
A22U U38C U103C A135U | 2.04
A22U U38C U108G A110G | 0.02
A22U U39A A118U | 0.93
A22U U39A U57A | 1.31
A22U U39C A51G A68G A91G A114C | 0.11
A22U U39C A59G A68G A90G A140G | 1.25
A22U U39C A78G A89G U122C | 0.29
A22U U43C A55G A94G | 1.59
A22U U49C A55G A82U U133C A134G | 0.12
A22U U49C A64U U87C | 1.4
A22U U49C A125G A126U C128U U130C | 0.65
A22U U49C G74A A118U | 0.05
A22U U57A A126G | 0.52
A22U U70C A78G | 0.21
A22U U72A A78G | 0.17
A22U U72A A91U | 0.22
A22U U97C A118G | 0.49
A22U U108C A125G | 0.01
A22U U127A U130C | 1.9
A23C A30G A125U | 0.73
A23C A47G A91U | 0.43
A23C A82G A94G U102A | 0.1

Variant | self-cleavage
A23C A90G A91G A125G | 0.21
A23C C81U A134G | 0.29
A23C U26A A56G U132C | 0.93
A23C U43C A56G U87A U108C | 0.01
A23C U108C A114U | 0.01
A23G A24G A30G A47U A94G | 0.91
A23G A24G A51G A69U | 1.32
A23G A24G A86G | 2.57
A23G A24G G41A A51G A63G U131C | 1.55
A23G A24G U26C A30G A63G A89G | 0.99
A23G A24G U37C A117G U130A | 0.72
A23G A24G U100C U132C | 1.6
A23G A24U U57C A89G U97C U100C | 1.29
A23G A27G G50A C81U | 0.38
A23G A30G A60G U102A | 0.36
A23G A30G A68G U87C A98G C105U | 0.09
A23G A30G U43A A91G U108C | 0.1
A23G A30G U108A U132C | 0.1
A23G A30U A63G A78G | 0.33
A23G A30U A63G A118G | 0.38
A23G A30U A94G G115U | 0.02
A23G A30U G41C A118G | 1.02
A23G A33C U57A | 1.61
A23G A33G A68G | 0.76

Variant | self-cleavage
A23G A33G A135G | 1.58
A23G A33G U37C | 0.85
A23G A33G U37C A52G U122A | 0.27
A23G A33G U39C A90G A125G | 0.29
A23G A33U A78G A91G A126G | 0.02
A23G A33U A82G | 1.32
A23G A36G A91U A95U U127C | 1.3
A23G A36G U37C U122C | 1.01
A23G A36G U38C A52U | 0.62
A23G A36U A89U U120A | 1.69
A23G A47G A59U A67G U131C | 0.11
A23G A47G A64G A69G | 0.22
A23G A47G A78G A111G | 0.12
A23G A47G U70C U100A | 0.09
A23G A51G A54G U100A | 0.34
A23G A51G A62G C128A | 0.4
A23G A51G A67C U70C | 0.31
A23G A51G A67G | 0.93
A23G A51G A67G A94G | 1.31
A23G A51G A89U | 1.16
A23G A51G A90G | 0.94
A23G A51G G136A | 1.21
A23G A51G U97A | 1.56
A23G A52G A55G | 0.83

Variant | self-cleavage
A23G A52G A59G | 1.34
A23G A52G A59G G73A | 0.39
A23G A52G A94G A95G | 1.76
A23G A52G A95G A118U | 0.82
A23G A52G A114G | 0.4
A23G A52G A117G | 1.84
A23G A52G A118U U132C | 0.41
A23G A52U U102C | 1.69
A23G A54G A55G U70A G138A | 0.3
A23G A54G A60G | 0.35
A23G A54G A63G U132C | 1.05
A23G A54G A66G | 1.11
A23G A54G A69G A82G A118G | 0.23
A23G A54G A114U | 0.03
A23G A54G A117G | 1.73
A23G A54G A125G | 0.29
A23G A54G G138C | 0.64
A23G A54G U57A U72C U131C | 0.39
A23G A54U A64G | 1.41
A23G A55G A56G A60G A94G A110U | 0
A23G A55G A59G | 1.09
A23G A55G A60G U87A A98G | 0.45
A23G A55G A89U A96G A117G | 2.8
A23G A55G A118G U120A U127C U130C | 0

Variant | self-cleavage
A23G A55G A135G | 1
A23G A55U A67G | 0.83
A23G A55U G74A | 0.16
A23G A56G A68G U87C A89G | 0.55
A23G A56G C113A | 0.06
A23G A56G U57A A90G U103C | 0.11
A23G A56U A92G A95G A116G | 1.4
A23G A59G A62U G79A A89G | 0.12
A23G A59G A67G G136A | 0.78
A23G A60G A63G U122A | 0.87
A23G A60G A89G A118G | 1.15
A23G A60G U70C | 0.44
A23G A60U U102A G123C | 0.65
A23G A62C C121U A129U | 0.68
A23G A62G A78G | 0.19
A23G A62G A96G | 0.84
A23G A62G A118G | 0.63
A23G A62G U70C | 0.34
A23G A62G U87C A95C U108C | 0.01
A23G A62G U139C | 1
A23G A62U U72A G75C U122C G136A | 0.17
A23G A63G A134U | 0
A23G A64C A140G | 2.19
A23G A64G A82G | 0.27

Variant | self-cleavage
A23G A64G A82G A111G | 0.08
A23G A66G A67G A69G | 0.96
A23G A66U A90G U108C | 0.03
A23G A66U A96G U108G | 0.01
A23G A66U A114U | 0.04
A23G A67G A95U U108C A118G U127A | 0
A23G A67G A126G | 0.93
A23G A67G U102C U132A A140G | 1.83
A23G A67U A68G A82U | 0.44
A23G A67U U127C | 0.29
A23G A68G C109A | 0.52
A23G A68G G83U U122A | 0.32
A23G A68G U127C | 1.11
A23G A78G A90G | 0.09
A23G A78G A116G | 0.15
A23G A78G U103C | 0.14
A23G A78U A125G | 0.07
A23G A82G C109U U132C | 0.12
A23G A82G U103C A117G | 1.88
A23G A86G U87A G123A | 1.3
A23G A89G A92G A134G | 0.85
A23G A89G A116G | 0.32
A23G A89G U103C | 0.25
